# Among all 5,400 compounds or so, about 190 (3.5%) showed an effect of 50% or more. Some of the results follow. Non-standard residues stand in square brackets, D forms with d. Residues, ends and D or L forms follow the SMILES beside them. *: point of attachment. Sta = CC(C)C[C@H](N)[C@@H](O)CC(=O)O; Isovaleryl = CC(C)CC(=O)*
# Test system: Vero-E6
# Experiment: primary screen, phospholipidosis by LipidTOX staining; higher = more effect of the substance
# Details: 10 µM
# Description: To measure drug-induced PLD in Vero-E6 cells, we used the HCS LipidTOX Red Phospholipidosis Detection Reagent (Invitrogen, #H34351), which is non-toxic to cell growth and remains well retained after aldehyde fixation. In this setup, compounds (at 10 μM concentration) and controls (amiodarone: 10 μM concentration; DMSO: 0.1 v/v %) were added to clear-bottom, 384-well plates (PhenoPlate 384-well, black, optically clear flat bottom, tissue-culture treated, Revvity #6057302) using the Echo Liquid Handler (Labcyte).
row,Compound,result_ITMP
1,CC(C)(C)c1ccc(-c2nc3ccccc3[nH]2)cc1,1.03%
2,CC[C@@H](c1cccc(O)c1)[C@@H](C)CN(C)C,-2.25%
3,Cc1nc(-c2cn3c(n2)-c2ccc(-c4cnn(C(C)(C)C(N)=O)c4)cc2OCC3)n(C(C)C)n1,-1.26%
4,O=C(/C=C/c1ccc(CN(CCO)CCc2c[nH]c3ccccc23)cc1)NO,-1.88%
5,Nc1nc(NCCc2ccc(O)cc2)nc2nc(-c3ccco3)nn12,-3.67%
6,CCCCCCCCCCCC(=O)N(CCO)CCO,-3.72%
7,COC(=O)c1ccc(O)cc1,-5.12%
8,COC(=O)N(C)c1c(N)nc(-c2nn(Cc3ccccc3F)c3ncccc23)nc1N,-4.67%
9,Cc1cccc(NC(=O)N[C@@H]2N=C(c3ccccc3)c3ccccc3N(C)C2=O)c1,-4.61%
10,c1ccc(C(NCc2cccnc2)(c2ccccc2)c2ccccc2)cc1,-7.19%
11,Cc1cccc(C#Cc2ccccc2)n1,-2.86%
12,N[C@H](C(=O)O)c1cc(O)cc(O)c1,-1.33%
13,COC(=O)C1=C(C)NC(C)=C(C(=O)OCCSc2ccccc2)C1C (stereo not drawn),-2.59%
14,CN(C)C(=O)Oc1cc(OC(=O)N(C)C)cc(C(O)CNC(C)(C)C)c1 (stereo not drawn),-6.07%
15,C[C@H](O)C(=O)Nc1c(I)c(C(=O)NC(CO)CO)c(I)c(C(=O)NC(CO)CO)c1I,0.49%
16,c1ccc(CCNc2nc(-c3ccccc3)cs2)cc1,-3.35%
17,CC(C)CC(=O)N[C@H](C(=O)N[C@H](C(=O)N[C@@H](CC(C)C)[C@@H](O)CC(=O)N[C@@H](C)C(=O)N[C@@H](CC(C)C)[C@@H](O)CC(=O)O)C(C)C)C(C)C (Isovaleryl-VV[Sta]A[Sta]-OH),-0.89%
18,CC1(C)CCC(C)(C)c2cc(C3(c4ccc5cc(C(=O)O)ccc5c4)SCCS3)ccc21,-1.71%
19,C[C@H](C(=O)O)c1ccc(-c2ccccc2)c(F)c1,-2.74%

row,Compound,result_ITMP
1,O=c1cc(O)c(Cl)c[nH]1,-6.34%
2,c1ccc(OCc2ccc(CCCN3CCOCC3)cc2)cc1,14.3%
3,CCCCN(CCCC)C(=O)CN1C[C@H](c2ccc3c(c2)OCO3)[C@@H](C(=O)O)[C@@H]1c1ccc(OC)cc1,0.36%
4,O=C1CC2(CCCC2)CC(=O)N1CCCCN1CCN(c2ncccn2)CC1,-2.83%
5,CC[C@H]1OC(=O)[C@H](C)[C@@H](O[C@H]2C[C@@](C)(OC)[C@@H](O)[C@H](C)O2)[C@H](C)[C@@H](O[C@@H]2O[C@H](C)C[C@H](N(C)C)[C@H]2O)[C@](C)(O)C[C@@H](C)[C@@H]2N[C@@H](COCCOC)O[C@H]([C@H]2C)[C@]1(C)O,3.41%
6,CC(=O)[C@H]1CCC2C3CC=C4C[C@@H](O)CC[C@]4(C)C3CC[C@@]21C (stereo partly drawn),-3.36%
7,Cc1cc(C)c(/C=C2\C(=O)Nc3ccccc32)[nH]1,-1.96%
8,CN/C(=C\[N+](=O)[O-])NCCSCc1csc(CN(C)C)n1,-10.8%
9,CC(C)c1cc(-c2ccc(F)c3ccccc23)nc(N)n1,-4.48%
10,COC(=O)Nc1nc2ccc(S(=O)c3ccccc3)cc2[nH]1 (stereo not drawn),10.2%
11,N#Cc1cc(-c2n[nH]c(-c3ccncc3)n2)ccn1,-1.96%
12,CC(=O)N(OCc1ccccc1)[C@@H]1c2cc(C#N)ccc2OC(C)(C)[C@H]1O,-8.99%
13,CCn1ccnc1CC1COc2ccccc2O1 (stereo not drawn),-1.64%
14,COc1ccc(S(=O)(=O)N(C(C)=O)c2ccccc2/C=C/c2cc[n+]([O-])cc2)cc1,12.8%
15,Cc1c(F)cc(C(=O)NC2CC2)cc1-c1ccc(C(=O)NCC(C)(C)C)cn1,0.26%
16,O=C(O)[C@@H](c1ccc(OCc2ccc3ccccc3n2)cc1)C1CCCC1,-10.2%
17,Cn1cc(C(=O)C(=O)N[C@H]2CN3CCC2CC3)c2ccccc21,4.71%
18,C[C@]12CCC(=O)C=C1CC[C@@H]1[C@@H]2CC[C@@]2(C)[C@H]1CC[C@]2(C)O,0.46%
19,CCCCCCCCCCCCCCCC(=O)O[C@@H]1[C@@H](O)[C@@H](O)[C@@H]([C@H](NC(=O)[C@@H]2C[C@@H](CCC)CN2C)[C@H](C)Cl)O[C@@H]1SC,8.48%

row,Compound,result_ITMP
1,Cc1cc(CC(=O)O)n(C)c1C(=O)c1ccc(Cl)cc1,-3.4%
2,O=C(O)C1=CCCNC1,3.24%
3,COc1cc(C#N)ccc1S(=O)(=O)Nc1ccc2c(c1)cc(C)c(=O)n2C,-3.82%
4,CCOC(=O)c1ccc(-c2ccc(OC(=O)N(C)Cc3cccc(-c4ccncc4)c3)cc2)cc1,-1.86%
5,CC(=O)Nc1ncc([N+](=O)[O-])s1,1.4%
6,FC(F)(F)c1ccc(N2CCNCC2)nc1Cl,29.2%
7,CCC1(c2ccc(N)cc2)CCC(=O)NC1=O (stereo not drawn),-3.57%
8,Nc1nccc2c1ncn2[C@@H]1O[C@H](CO)C(O)C1O (stereo partly drawn),0.15%
9,Nc1ccc2cc3ccc(N)cc3nc2c1,15.2%
10,C#Cc1cccc2c1c(C(=O)c1ccc(Cn3c(C)nc4cnccc43)c(F)c1)cn2C(=O)N(C)C,0.05%
11,CC(=O)OCC(=O)[C@@]1(O)CCC2C3CCC4=CC(=O)CC[C@]4(C)[C@@]3(F)[C@@H](O)C[C@@]21C (stereo partly drawn),-0.98%
12,CC(=O)Nc1cccc(Nc2ncnc(N3CCC(OCc4ccc(OC(F)(F)F)cc4)CC3)n2)c1C,-3.81%
13,O=S1(=O)N[C@H]2CCCN2c2ccccc21,-4.95%
14,CNC(=O)c1cnn(-c2nc(N)c3ncn([C@@H]4O[C@H](CO)[C@@H](O)[C@H]4O)c3n2)c1,0.96%
15,COc1ccc(C2CC(c3c(O)cc(C)oc3=O)=NCCS2)c(OC)c1 (stereo not drawn),-1.35%
16,N#Cc1ccnc(N2C(=O)CC[C@H]2C(=O)N(c2cncc(F)c2)[C@H](C(=O)NC2CC(F)(F)C2)c2ccccc2Cl)c1,-1.1%
17,CCC(=O)c1c(O)cc(O)cc1O,-6.66%
18,C=CC(=O)Nc1ccc2ncnc(Nc3cccc(Br)c3)c2c1,20.6%
19,CC1Cc2ccccc2N1NC(=O)c1ccc(Cl)c(S(N)(=O)=O)c1 (stereo not drawn),-3.24%
